Laboratory results reported in paper PMC6919601, “Identification of Plasmodium dipeptidyl aminopeptidase allosteric inhibitors by high throughput screening” (PLoS ONE, 2019).
Screen size: about 110,000 compounds; about 230 (0.21%) showed an effect of 50% or more. Some of the results follow.

Target: DPAP1 (Plasmodium falciparum, UniProt Q8IIJ9)
Experiment: primary screen, percent inhibition; read by cleavage of a fluorogenic dipeptide substrate; higher = more effect of the substance
Design: species or system P. falciparum D10 trophozoite lysates; single well
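Further: 30 min substrate incubation versus DMSO and 10 µM JCP410 controls.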

DPAP1, sequence (Q8IIJ9 whole entry, looked up): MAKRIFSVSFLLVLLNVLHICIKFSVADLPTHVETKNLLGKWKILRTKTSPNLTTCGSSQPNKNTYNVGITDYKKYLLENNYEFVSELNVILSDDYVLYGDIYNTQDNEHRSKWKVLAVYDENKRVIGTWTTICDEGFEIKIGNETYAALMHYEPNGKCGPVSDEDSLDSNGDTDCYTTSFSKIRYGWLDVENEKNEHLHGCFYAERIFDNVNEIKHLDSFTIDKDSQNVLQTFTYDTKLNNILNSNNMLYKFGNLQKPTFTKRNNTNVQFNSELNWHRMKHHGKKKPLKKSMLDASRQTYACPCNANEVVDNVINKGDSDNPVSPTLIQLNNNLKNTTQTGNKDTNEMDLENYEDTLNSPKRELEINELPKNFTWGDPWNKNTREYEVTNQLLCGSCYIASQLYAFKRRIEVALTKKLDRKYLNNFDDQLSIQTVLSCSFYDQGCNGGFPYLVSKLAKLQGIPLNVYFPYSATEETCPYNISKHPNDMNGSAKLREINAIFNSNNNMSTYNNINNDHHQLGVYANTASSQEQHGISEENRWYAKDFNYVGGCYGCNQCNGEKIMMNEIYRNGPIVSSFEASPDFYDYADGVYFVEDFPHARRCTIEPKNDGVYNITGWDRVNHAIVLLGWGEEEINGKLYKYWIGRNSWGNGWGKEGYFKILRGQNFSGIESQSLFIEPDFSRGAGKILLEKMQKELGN

SMILES | % Inhibition @ 10 uM
CC(=O)N1N=C(c2ccco2)CC1c1cc2ccc(C)cc2nc1Cl (stereo not shown) | 1.35%
COc1ccc(C(=O)C2=C(O)C(=O)N(Cc3cccnc3)C2c2ccc(O)c(OC)c2)cc1 (stereo not shown) | -2.85%
CC1(C)CC(NCC(=O)NC2CC(C)(C)NC(C)(C)C2)CC(C)(C)N1 | 2.22%
O=C1C2ON(c3ccccc3)C(c3ccncc3)C2C(=O)N1c1ccc(N2CCOCC2)cc1 (stereo not shown) | -4.41%
Cc1ccc(-c2nc3s/c(=C\c4ccccc4)c(=O)n3n2)cc1 | 0.222%
CN1C(=O)C(=Cc2ccc(-c3ccc(Cl)cc3C(=O)O)o2)C(=O)N(C)C1=O | 3.81%
CCOc1ccccc1NC(=O)c1c(NC(=O)CCC(=O)O)sc2c1CCCCC2 | -0.795%
CCCCOc1ccc(C(C)NC(=O)CCN2N=C(c3ccc(C)cc3)CCC2=O)cc1 (stereo not shown) | 1.62%
COCCN(Cc1ccco1)C(=O)c1cc2c(Cl)nc3ccccc3c2s1 | 3.88%
COC(=O)c1nnn(-c2ccc(OC)cc2OC)c1C(=O)OC | 1.85%
OCCCc1nc2n(n1)C(c1ccccc1)C=C(c1ccc(Br)cc1)N2 (stereo not shown) | -0.512%
COc1ccc(C2OC(=O)C3(CCCCC3)C(=O)C2(C)C)cc1OC (stereo not shown) | 3.04%
CC(=O)c1c(C)n(-c2cccc3ccccc23)c2ccc(O)cc12 | -7.62%
COc1cccc(-c2nc(-c3ccc(Cl)cc3Cl)no2)c1 | -3.77%
CC(C)c1ccccc1NC(=O)CN(c1cccc(C(F)(F)F)c1)S(C)(=O)=O | -1.07%
CCOC(=O)c1ccc(NC(=O)CSc2ncnc3sc4c(c23)CCC4)cc1 | -4.91%
CCC(C)NC(=O)c1ccc([N+](=O)[O-])cc1Cl (stereo not shown) | -1.22%
O=C(O)c1ccccc1NC1=C(Cl)C(=O)N(c2ccccc2)C1=O | -0.99%
COc1ccc(OC)c(NC(=O)CN(c2ccc(Cl)cc2C)S(C)(=O)=O)c1 | 0.324%
CC(C)Cn1c(=O)c2ccccc2n2c(CCC(=O)NC3CCN(Cc4ccccc4)CC3)nnc12 | 2.6%
CCOc1ccccc1CNC(=O)c1sc2nc(C)cc(C)c2c1-n1cccc1 | 5.42%
Nc1ncc(Br)cc1S(=O)(=O)NCCC(=O)NCc1cccnc1 | -0.659%
COc1ccccc1-c1c(C)nn2c(N3CCN(C(=O)c4ccco4)CC3)cc(C)nc12 | -2.72%
Cc1ccc(C2C(C#N)=C(N)Oc3[nH]nc(C)c32)c(C)c1 (stereo not shown) | -6.25%
Cc1ccc(CN(Cc2ccco2)C(=S)NCC(=O)O)cc1 | 3.04%

SMILES | % Inhibition @ 10 uM
CC(=O)c1sc2nc(-c3cccs3)cc(-c3cccs3)c2c1N | 7.74%
Cc1c2cnn(CC(=O)N3CCC(C)CC3)c(=O)c2c(C)n1Cc1ccccc1F | -0.447%
CCCN1C(=O)/C(=C/C=C2/Oc3ccccc3N2CCC(=O)O)N(CCO)C1=S | 3.47%
CCCc1[nH]nc2c1C(c1cccc(OC)c1OC)C(C#N)=C(N)O2 (stereo not shown) | -2.53%
CC(=O)NC1=NN(C(C)=O)C(C)(c2ccc(-c3ccccc3)cc2)S1 (stereo not shown) | 3.99%
COc1ccc(CCNC(=O)c2ccccc2NC(=O)c2ccc(C)cc2)cc1OC | 4.44%
Cc1cc(O)c(C(=O)O)c(/C=C/c2cccc(Br)c2)n1 | 2.6%
O=S(=O)(NC1CC2CCC1C2)c1ccc2c(c1)OCCO2 (stereo not shown) | -0.641%
CC(=O)c1c(C)nc2ccc(Br)cc2c1C(=O)O | 37.2%
CCCc1nnc2sc(NC(=O)COc3ccccc3)nn12 | -0.0652%
OCCCCNc1ncnc2c1ncn2C1OC(CO)C(O)C1O (stereo not shown) | 3.58%
O=C(C1=C(O)C(=O)N(CCCn2ccnc2)C1c1cccnc1)c1ccccc1 (stereo not shown) | 1.88%
CC(=O)c1cccc(N2C(=S)NC(C)(C)C=C2C)c1 | -7.15%
COc1ccc(CC(=O)Nc2cc(Cl)ccc2Cl)cc1 | -4.49%
COc1ccccc1NC(=O)C1CC=CCC1(C)C(=O)O (stereo not shown) | 1.69%
CN(c1ccc(C(=O)NC2CCCC2)cc1)S(C)(=O)=O | 8.82%
CC1CCC(N(C)CCN(C)C)CC1 (stereo not shown) | 0.217%
COc1ccc(-c2cc(-c3ccccc3)nc(O)n2)cc1OC | -3.27%
O=C(NCCC1=CCCCC1)c1cnn(-c2ccc(F)cc2)c1-n1cccc1 | -5%
COc1ccc(NC(=O)c2ccc(CNS(=O)(=O)c3cccc(Cl)c3)cc2)cc1 | -6.05%
COc1cc(CN(C(=S)NCC(=O)NCc2ccc(C)cc2)C2CCCC2)cc(OC)c1OC | 8.9%
CC(Cc1ccccc1)NC(=O)Cc1ccc(N(C)C)cc1 (stereo not shown) | -2.21%
CN(C)CCCC1(O)c2ccccc2C=Cc2ccccc21 | -4.28%
CCOc1cccc2cc(C(=O)O)c(=O)oc12 | -6.08%
CN(C(=O)/C=C\C(=O)O)C1CCS(=O)(=O)C1 (stereo not shown) | 2.56%

SMILES | % Inhibition @ 10 uM
N#Cc1ccc(Cn2cnc3ccccc32)cc1 | 0.454%
Cc1ccccc1-c1nc2s/c(=C\C3=Cc4ccccc4OC3)c(=O)n2n1 | -2.98%
Cc1ccccc1C(=O)Nc1sc2c(c1C(=O)N1CCC(C)CC1)CCC2 | -0.339%
Cc1ccc(Cl)cc1-n1c(C)cc(C=C2C(=O)NC(=O)NC2=O)c1C | 1.91%
CC(C)CC(=O)NCCNC(=O)c1c(O)oc2ccccc2c1=O | 1.7%
Cc1ccc(Cn2c(C)c(CNCc3ccc(C)o3)c(C(=O)O)c2C)cc1 | -0.23%
O=C(Cn1c(=O)c2cccn2c2cccnc21)NCCCN1CCC(Cc2ccccc2)CC1 | 1.26%
CC(=O)c1sc(N2N=C(c3ccccc3)CC2c2ccccc2)nc1C (stereo not shown) | 4.26%
Cc1ccc(C2c3c(-c4ccccc4O)n[nH]c3C(=O)N2Cc2ccco2)cc1 (stereo not shown) | 6.67%
Cc1ccc(SCCC(=O)NC2CC2)cc1 | 1.94%
CNC(=O)CN1C(=O)CSc2nc(C)cc(C)c21 | -7.93%
Cc1ccc(C)n1-c1ccccc1C1C=CN(C(=O)OC(C)(C)C)C=C1 | -1.22%
Cn1c(CCNC(=O)c2ccco2)nc2ccccc21 | 0.366%
Cc1ccccc1CSCC(=O)Nc1ccccc1C(=O)NCC(C)C | -8.49%
CCOC(=O)c1cnc2c(C)cc(C)cc2c1NCc1ccccc1 | 2.17%
O=C(Cn1ncc2c3ccccc3n(Cc3ccccc3F)c2c1=O)NCc1ccccn1 | 1.8%
Cc1ccc(C(=O)NC(=S)NCCc2ccccc2)cc1 | 1.74%
CCCCC1NC(C(=O)O)Cc2c1[nH]c1ccccc21 (stereo not shown) | -9.55%
CCOc1ccc(NC(=O)c2cc3c(ccc4ccccc43)o2)cc1 | -2.88%
COc1ccccc1/C=C1\C(=O)NC(=O)N(c2ccccc2)C1=O | -2%
O=C(NCCC1=CCCCC1)C(Cc1ccccc1)N1Cc2ccccc2C1=O (stereo not shown) | -1.34%
CCc1cccc(C)c1NC(=O)Cc1ccccc1 | 3.83%
CC(C)(C)c1ccccc1OCCCCCN1CCNCC1 | -4.5%
O=C(CCn1nc(-c2ccccc2)ccc1=O)NCCc1ccccc1 | -3.58%
Cc1cc(NC(=O)COc2ccccc2C)ccc1NC(=O)c1cccs1 | -3.85%

SMILES | % Inhibition @ 10 uM
O=C(OCCC1(c2ccccc2)C(=O)c2ccccc2C1=O)c1ccc([N+](=O)[O-])cc1 | -0.415%
O=C1COc2ccc(C3=Nc4ccccc4SC(c4ccccc4)C3)cc2N1 (stereo not shown) | 1.15%
CC(C)C[C@H](NC(=O)c1cc2ccccc2o1)C(=O)NCC#N | -12.9%
COc1cc(C)nc(N(Cc2ccccc2)S(=O)(=O)c2ccccc2)n1 | 5.03%
Clc1ccc(CN2CCN(Cc3ccc4c(c3)OCO4)CC2)cc1Cl | 1.4%
CCCn1c(=N)c(C(=O)NCCCOC)cc2c(=O)n3cc(C)ccc3nc21 | -1.47%
CC(=O)c1c(C(C)=O)c(C)n(Cc2ccc3c(c2)OCO3)c1C | 3.54%
COc1ccc(OC)c(CN2CCN(Cc3c[nH]c4ccccc34)CC2)c1 | -4.01%
COc1ccc(C2C(C(=O)N3CCC(C)CC3)c3ccccc3C(=O)N2C)cc1 (stereo not shown) | -2.9%
Cc1ccc(S(=O)(=O)CCC(=O)O)cc1C | 1.63%
COC(=O)c1ccccc1-n1c(C)cc(/C=C2/NC(=O)N(Cc3ccccc3F)C2=O)c1C | -1.81%
COc1ccc2ncc(S(=O)(=O)c3ccc(C)cc3)c(N3CCCC(C)C3)c2c1 (stereo not shown) | -1.69%
CC(C)N1C/C(=C/c2ccc(Br)o2)C(=O)/C(=C/c2ccc(Br)o2)C1 | 7.57%
CC1(C)CC(=O)C2=C(C1)N(Cc1ccccc1)C(=O)NC2(C(F)(F)F)C(F)(F)F | 1.91%
COc1ccc(-c2onc(C)c2C)cc1S(=O)(=O)N1CCN(c2ncccn2)CC1 | -7.66%
O=S(=O)(NCCc1cccs1)c1ccc(-c2cc(C(F)(F)F)no2)s1 | -3.61%
CC1CN(Cc2nc3c(c(=O)n(C)c(=O)n3C)n2CCCO)CC(C)O1 (stereo not shown) | -3.23%
O=C1NC(=S)S/C1=C\c1ccc(C(=O)O)cc1 | -6.22%
CCOc1ccccc1/C=C1\N=C(c2ccccc2OC)OC1=O | 6.56%
CCSc1cnc(-c2ccccc2)n1CC | -1.2%
Cc1nn(CC(=O)NCCc2ccc(Cl)cc2)c(=O)c2c1sc1ccccc12 | 2.8%
CCOc1ccc(OCC(=O)Nc2ccccc2F)cc1 | -11.5%
COc1ccc(OC)c(CN2CC(C)OC(C)C2)c1 (stereo not shown) | 0.215%
O=S(=O)(c1cnccc1N1CCN(CCO)CC1)N1CCCCC1 | -5.21%
N#Cc1cc2c(nc1SCC(=O)c1ccccc1)CCCC2 | 7.76%
